Test results from the supplement of paper PMC3334620.
Whole data set: some 33,000 sequences, median “E-score (-0.5 to 0.5)” near -0.013, cut for the highest 2% near 0.3. The list shows a part of the results.

The sequences below were run against T1, Msn1 (UniProt P22148) (assay: PBM E-score (8-mer binding enrichment) (E-score (-0.5 to 0.5)); higher = stronger / more preferred TF binding; most listed sequences are background and not binding sites). Conditions: protein concentration: 200 nM; construct: GST-full length.
T1 sequence: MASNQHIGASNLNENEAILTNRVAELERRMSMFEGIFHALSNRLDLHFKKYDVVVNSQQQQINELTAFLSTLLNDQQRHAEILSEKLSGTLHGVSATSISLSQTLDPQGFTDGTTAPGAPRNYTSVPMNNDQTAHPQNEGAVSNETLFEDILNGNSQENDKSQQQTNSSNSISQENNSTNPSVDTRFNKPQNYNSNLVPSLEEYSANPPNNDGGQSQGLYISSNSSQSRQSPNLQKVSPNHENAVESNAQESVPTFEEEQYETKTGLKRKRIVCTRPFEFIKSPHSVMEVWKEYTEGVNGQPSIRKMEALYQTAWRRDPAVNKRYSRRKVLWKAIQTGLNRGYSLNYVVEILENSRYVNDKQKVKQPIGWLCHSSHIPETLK
Method in brief: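 GST-tagged yeast TFs (full-length or DNA-binding domain) were made by PURExpress in vitro transcription/translation and applied at about 100-200 nM to universal all-10-mer Agilent arrays. The arrays were made double-stranded by primer extension, on fresh or once-stripped slides. Bound protein was detected with fluorescent anti-GST, and scans were normalised with masliner. Each ungapped eight-base word, pooled with its reverse complement, received an E-score (modified Wilcoxon-Mann-Whitney statistic) from the Universal PBM Analysis Suite.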
GTTGTGTA was tested, and the “PBM E-score” value was 0.107. For AGGAATCA, the “PBM E-score” value was 0.0404. With AGCCCTGA the “PBM E-score” value was -0.186. In the case of AATTGTAT, the “PBM E-score” value was 0.155. For CACTTCCC, the “PBM E-score” value was -0.0731. In the case of ATTTTGGA, the “PBM E-score” value was 0.26. For TGTCAAAA, the “PBM E-score” value was 0.251. For ACAGTGTC, the “PBM E-score” value was -0.0415. In the case of CTGAAATC, the “PBM E-score” value was -0.0568. For CTCTAGGA, the “PBM E-score” value was -0.0748. AAAAAAGG was tested, and the “PBM E-score” value was 0.222. For CTTCACCA, the “PBM E-score” value was -0.181. For AGGAAATA, the “PBM E-score” value was 0.137. With ACACTCAG the “PBM E-score” value was -0.143. In the case of CCGGCCGC, the “PBM E-score” value was -0.228. CCGTACGA was tested, and the “PBM E-score” value was 0.0796. In the case of AGTCATGC, the “PBM E-score” value was -0.251. With CCCACGTA the “PBM E-score” value was -0.0672. In the case of CAGGACAA, the “PBM E-score” value was 0.481. With GAAAATCA the “PBM E-score” value was 0.189. For CCCGCAAG, the “PBM E-score” value was -0.118. With ACACCGCA the “PBM E-score” value was -0.0976. AATTTTTA was tested, and the “PBM E-score” value was 0.158. For AACACCCG, the “PBM E-score” value was 0.0208. In the case of AATTAGGA, the “PBM E-score” value was 0.134. In the case of AAGAAGGA, the “PBM E-score” value was -0.172. TGAGTGCA was tested, and the “PBM E-score” value was -0.206. With GAGTCAAC the “PBM E-score” value was -0.158. With AAGGATAT the “PBM E-score” value was 0.125. In the case of ATTAAGGG, the “PBM E-score” value was -0.199. For GACACCGC, the “PBM E-score” value was -0.0681. With CGTTTTTC the “PBM E-score” value was 0.0566. For CCGCAGAC, the “PBM E-score” value was -0.07. For ACAGAGGC, the “PBM E-score” value was -0.168. With ATAAGTAC the “PBM E-score” value was 0.229. CCAAGGCG was tested, and the “PBM E-score” value was -0.0145. With AGATTGAG the “PBM E-score” value was -0.00514. GGAAGTGA was tested, and the “PBM E-score” value was -0.0753. In the case of CAATCACC, the “PBM E-score” value was -0.0962. AAGATGAC was tested, and the “PBM E-score” value was -0.00946. With CGCGCGCC the “PBM E-score” value was 0.247. CAAAACGC was tested, and the “PBM E-score” value was 0.153. With ACTAAATC the “PBM E-score” value was 0.0606. For CACACGGC, the “PBM E-score” value was 0.0388. AAAGATGA was tested, and the “PBM E-score” value was 0.215. With CAGTATAG the “PBM E-score” value was 0.137. In the case of TCATCCAA, the “PBM E-score” value was 0.00053. With AATGAACT the “PBM E-score” value was 0.0106. In the case of GCAATTGA, the “PBM E-score” value was -0.125. For CTGTTAGC, the “PBM E-score” value was -0.165. For GCGGGAGA, the “PBM E-score” value was -0.291. With CGCTTTAC the “PBM E-score” value was -0.0405. For AACGGGGA, the “PBM E-score” value was 0.111. In the case of GCCAAGGA, the “PBM E-score” value was -0.0314. With CGTGTTTA the “PBM E-score” value was 0.073. For CGCGGACA, the “PBM E-score” value was 0.329. In the case of GCCTGCGA, the “PBM E-score” value was -0.174. For CCTGAGGC, the “PBM E-score” value was -0.336. With CCAGCCCA the “PBM E-score” value was -0.218. CAAACGAC was tested, and the “PBM E-score” value was 0.147. With AGGGCGAA the “PBM E-score” value was -0.146. AAAGCGTG was tested, and the “PBM E-score” value was 0.0783. TGTCGGAA was tested, and the “PBM E-score” value was 0.216. GATCGCCA was tested, and the “PBM E-score” value was -0.138. With CATCCATG the “PBM E-score” value was -0.0533. In the case of GACCGGAA, the “PBM E-score” value was 0.0448. For CCGAACGA, the “PBM E-score” value was 0.179. In the case of GGGAAACA, the “PBM E-score” value was -0.0369. AATGTATG was tested, and the “PBM E-score” value was 0.121. ATTTTTTA was tested, and the “PBM E-score” value was 0.21. For AGCCCGCG, the “PBM E-score” value was -0.185. With ACGGAGAG the “PBM E-score” value was -0.251. TACTAAAA was tested, and the “PBM E-score” value was 0.196. For TCCTCACA, the “PBM E-score” value was 0.0216. In the case of ACCCGTCT, the “PBM E-score” value was -0.0761. AAATGTCA was tested, and the “PBM E-score” value was 0.456. For GAGAGTGA, the “PBM E-score” value was -0.0411. For CGGAATAC, the “PBM E-score” value was 0.206. With AGGTCTCA the “PBM E-score” value was 0.161. With ATCGTACA the “PBM E-score” value was 0.0581. With CATCCTAG the “PBM E-score” value was -0.132. In the case of AGGAAGAG, the “PBM E-score” value was -0.0758. In the case of ACACTCTA, the “PBM E-score” value was -0.0709. With CTTCGACA the “PBM E-score” value was 0.0726. In the case of ACTAGTAG, the “PBM E-score” value was 0.0879. In the case of AGAACGAT, the “PBM E-score” value was 0.114. ATGCGCAC was tested, and the “PBM E-score” value was -0.00069. CACTCTTA was tested, and the “PBM E-score” value was -0.0192. With GACACCTC the “PBM E-score” value was 0.0624. With CTTGAAAC the “PBM E-score” value was 0.116. In the case of GCCCGGGC, the “PBM E-score” value was -0.0372. For GCGTGTCA, the “PBM E-score” value was 0.136. With ACTCCAGA the “PBM E-score” value was -0.141. For GGGTGGTA, the “PBM E-score” value was -0.173. CGTTGAAC was tested, and the “PBM E-score” value was -0.0315. With AGCGATAA the “PBM E-score” value was -0.0628. In the case of CGTAACAC, the “PBM E-score” value was -0.014. ACAGGCCT was tested, and the “PBM E-score” value was -0.0369. AGCTTCCA was tested, and the “PBM E-score” value was -0.0343. CTTAGAGC was tested, and the “PBM E-score” value was 0.0886. In the case of ACAGAGGT, the “PBM E-score” value was -0.112. In the case of CCAACTTC, the “PBM E-score” value was -0.0726. For GACCAGTA, the “PBM E-score” value was -0.136. With GTGAATTA the “PBM E-score” value was 0.0971. In the case of ACCCCCAG, the “PBM E-score” value was -0.243. With CTCTGTAA the “PBM E-score” value was -0.151. In the case of GCTTCCGA, the “PBM E-score” value was 0.0704. For ATATGGTG, the “PBM E-score” value was 0.0957. ATCTGCCG was tested, and the “PBM E-score” value was 0.0828. For ACAATTTC, the “PBM E-score” value was 0.279. CCATCCAA was tested, and the “PBM E-score” value was -0.0179. In the case of CATTCGGA, the “PBM E-score” value was 0.276. In the case of CGGGGTAA, the “PBM E-score” value was 0.0107. With CAAGTAAA the “PBM E-score” value was 0.1. For CGTTGTTC, the “PBM E-score” value was 0.0573. In the case of CGTGCTAC, the “PBM E-score” value was -0.245. With ACCTGGTC the “PBM E-score” value was -0.0253. In the case of CTGGTAGA, the “PBM E-score” value was -0.0853. For GACCACGC, the “PBM E-score” value was 0.0106. In the case of CCACACGC, the “PBM E-score” value was -0.207. In the case of TCTCGCCA, the “PBM E-score” value was -0.0723. AATTTAAA was tested, and the “PBM E-score” value was 0.147. In the case of AGGTAATG, the “PBM E-score” value was -0.0384. For GCTTGGAA, the “PBM E-score” value was -0.00891. In the case of ACACTTCG, the “PBM E-score” value was 0.155. With GGACCTAC the “PBM E-score” value was -0.0262. In the case of CACAGAGG, the “PBM E-score” value was -0.122. With CCTGGCCG the “PBM E-score” value was -0.0438. For AAATTTCT, the “PBM E-score” value was -0.0628. CCTATGCA was tested, and the “PBM E-score” value was -0.112. In the case of CTCGTGAC, the “PBM E-score” value was 0.00678. With ACGACCAA the “PBM E-score” value was 0.12. For CACCTACC, the “PBM E-score” value was -0.0956. With CAGAAAAA the “PBM E-score” value was 0.0903. CATTCTAG was tested, and the “PBM E-score” value was -0.0107. For GGGCTAAA, the “PBM E-score” value was -0.0212. ATCTCGAG was tested, and the “PBM E-score” value was 0.0342. For AGCGGGGA, the “PBM E-score” value was -0.124. For CGGGTTTA, the “PBM E-score” value was 0.107. For ACACCGCT, the “PBM E-score” value was -0.0771. With CCTACGCG the “PBM E-score” value was -0.0384. AGTGCTCG was tested, and the “PBM E-score” value was -0.00373. With GCTAGGAA the “PBM E-score” value was -0.177. With CCAACAGA the “PBM E-score” value was 0.0204. For AGAGGCAA, the “PBM E-score” value was -0.0984. For ACCTTCTA, the “PBM E-score” value was 0.0596. In the case of GCCCCATA, the “PBM E-score” value was -0.259. In the case of GGAGGCCA, the “PBM E-score” value was -0.26. With GAGCAATC the “PBM E-score” value was 0.0308. ACACGTAC was tested, and the “PBM E-score” value was 0.22. In the case of CAACGGTC, the “PBM E-score” value was -0.024. In the case of AGAGGCGA, the “PBM E-score” value was -0.15. In the case of CATGGGCA, the “PBM E-score” value was -0.05. In the case of GTGCAGCA, the “PBM E-score” value was -0.256. AATTCACG was tested, and the “PBM E-score” value was -0.0818. For CCCGTGGC, the “PBM E-score” value was -0.304. AATCCAAA was tested, and the “PBM E-score” value was 0.0673. For GCCACCTA, the “PBM E-score” value was -0.218. For TAGGACAA, the “PBM E-score” value was 0.491. GCAAGTGA was tested, and the “PBM E-score” value was 0.12. In the case of AGGTTACA, the “PBM E-score” value was -0.14. With GCTGTTCA the “PBM E-score” value was -0.00393. ACAGAATA was tested, and the “PBM E-score” value was 0.0903. With GAATACAC the “PBM E-score” value was 0.018. In the case of GTCTATCA, the “PBM E-score” value was 0.156. For CCGGGGAC, the “PBM E-score” value was -0.113. With ACATGATA the “PBM E-score” value was 0.234. In the case of ACAGGAAA, the “PBM E-score” value was 0.137. With ACCTCGAA the “PBM E-score” value was 0.0707. ATTAGCCA was tested, and the “PBM E-score” value was 0.0736. With ACATTACC the “PBM E-score” value was 0.0974. In the case of ATTTAAGA, the “PBM E-score” value was 0.0224.
